Consider 46 molecules from patent US6448281B1 (Boehringer Ingelheim (Canada) Ltd., priority 2000, dated 2002).

This experiment concerns the target hepatitis C virus RNA dependent polymerase (NS5B) (Hepacivirus hominis (Hepatitis C virus), UniProt P26663). As to the kind of experiment: Inhibition of NS5B RNA dependent RNA polymerase activity (SPA, UMP-[5,6 3H] incorporation).
Where [1] appears, read: IC50 μM, first compound table (printed title TABLE 10; Table 1).

By IC50 is commonly meant the concentration that gives 50% inhibition. A lower IC50 goes with higher potency. In turn, `Cc1nc([C@H](Cc2ccc(O)cc2)NC(=O)c2ccc3c(c2)nc(-c2ccoc2)n3C2CCCCC2)cs1` [Entry 1187, 1-Cyclohexyl-furan-3-yl-1H-benzimidazole-5-carboxylic Acid [(S)-2-(4-Hydroxy-phenyl)-1-(2-methyl-thiazol-4-yl)-ethyl]-amide] showed an IC50 under setting [1] of 1 to 5 µM.
For `O=C(N[C@@H](Cc1c[nH]c2ccc(O)cc12)C(=O)NC(CO)CO)c1ccc2c(c1)nc(-c1ccoc1)n2C1CCCCC1` [Entry 13014, 1-Cyclohexyl-2-furan-3-yl-1H-benzimidazole-5-carboxylic Acid [(S)-1-(2-Hydroxy-1-hydroxymethyl-ethylcarbamoyl)-2-(5-hydroxy-1H-indol-3-yl)-ethyl]-amide], the 50% inhibitory concentration (IC50) (IC50, Table 13) is under 1 µM.
In turn, `O=C(N[C@@H](c1ccccc1)[C@H](O)c1ccccc1)c1ccc2c(c1)nc(-c1ccccn1)n2C1CCCCC1` [Entry 2009] returned a 50% inhibitory concentration (IC50) (IC50 μM, Table 2) of 10 to 25 µM.
Under “IC50, Table 15”, `O=C(N[C@@H](Cc1c[nH]c2ccc(O)cc12)c1cscn1)c1ccc2c(c1)nc(-c1ccc[nH]1)n2C1CCCCC1` [Entry 15003] came in with an IC50 of under 1 µM.
Turning to `COC(=O)[C@H](CCc1ccc(OCC(=O)O)cc1)NC(=O)c1ccc2c(c1)nc(-c1ccoc1)n2C1CCCCC1` [Entry 1033], under setting [1], the 50% inhibitory concentration (IC50) was in the range of 1 to 5 µM.
With `CC(NC(=O)C(Cc1ccc(O)cc1)NC(=O)c1ccc2c(c1)nc(-c1ccoc1)n2C1CCCCC1)C(=O)O` (stereo not shown) [Entry 1016], under setting [1], the IC50 fell in the range of 1 to 5 µM.
For `O=C(O)c1ccc2c(c1)nc(-c1ccc3c(c1)OCCO3)n2C1CCCCC1` [Entry 7014], the concentration for half-maximal inhibition (IC50) (IC50 μM, Table 7) lay within 1 to 5 µM.
`O=C(O)c1ccc2c(c1)nc(-c1ccccc1)n2C1CCCCC1` [Entry 7006] showed an IC50 (IC50 μM, Table 7) of 10 to 25 µM.
Consider `O=C(O)CCC(=O)N[C@H]1CC[C@H](NC(=O)c2ccc3c(c2)nc(-c2ccoc2)n3C2CCCCC2)CC1` [Entry 1222], for which the IC50 under setting [1] was 10 to 25 µM.
Under setting [1], `O=C(NC1CCCC(n2c(=O)[nH]c3ccccc3c2=O)C1)c1ccc2c(c1)nc(-c1ccoc1)n2C1CCCCC1` (stereo not shown) [Entry 1198] gave an IC50 of 10 to 25 µM.
`NC1CCCC(NC(=O)c2ccc3c(c2)nc(-c2ccoc2)n3C2CCCCC2)C1` (stereo not shown) [Entry 1182] had a half-inhibitory concentration (IC50) under setting [1] of 5 to 10 µM.
Consider `O=C(NC(Cc1cccc(O)c1)C(=O)O)c1ccc2c(c1)nc(-c1ccoc1)n2C1CCCCC1` (stereo not shown) [Entry 1023], for which the half-maximal inhibitory concentration (IC50) under setting [1] is 1 to 5 µM.
Take `Cn1cc(C[C@H](NC(=O)c2ccc3c(c2)nc(-c2ccoc2)n3C2CCCCC2)C(N)=O)c2cc(O)ccc21` [Entry 13002, 1-Cyclohexyl-2-furan-3-yl-1H-benzimidazole-5-carboxylic Acid [(S)-1-carbamoyl-2-(5-hydroxy-1-methyl-1H-indol-3-yl)-ethyl]-amide]: the IC50 (IC50, Table 13) was under 1 µM.
Take `Cc1cscc1-c1nc2cc(C(=O)O)ccc2n1C1CCCCC1` [Entry 7022]: for the setting “IC50 μM, Table 7”, the half-inhibitory concentration (IC50) is 5 to 10 µM.
For the setting “IC50, Table 16”, `O=C(O)/C=C/c1cc(C[C@H](NC(=O)c2ccc3c(c2)nc(-c2ccoc2)n3C2CCCCC2)C(=O)O)ccc1O` [Entry 16064, (E)-3-[5-((S)-2-Carboxy-2-{[1-(1-cyclohexyl-2-furan-3-yl-1H-benzimidazol-5-yl)-methanoyl]-amino}-ethyl)-2-hydroxyphenyl]-acrylic Acid] displayed an IC50 of under 1 µM.
Turning to `O=C(NCCc1c[nH]c2ccc(O)cc12)c1ccc2c(c1)nc(-c1ccoc1)n2C1CCCCC1` [Entry 11001], for the setting “IC50, Table 11”, the IC50 is under 1 µM.
As for `O=C(NC(C(=O)O)c1ccc(Cl)cc1)c1ccc2c(c1)nc(-c1ccoc1)n2C1CCCCC1` (stereo not shown) [Entry 1012], under setting [1], the concentration for half-maximal inhibition (IC50) is 1 to 5 µM.
In the case of `CC(C)n1c(-c2ccoc2)nc2cc(C(=O)N[C@@H](Cc3c[nH]c4ccc(OCC(=O)O)cc34)C(=O)O)ccc21` [Entry 22006], the 50% inhibitory concentration (IC50) (IC50 μM, Table 22) was under 1 µM.
Turning to `CC(NC(=O)c1ccc2c(c1)nc(-c1ccoc1)n2C1CCCCC1)C(=O)O` (stereo not shown) [Entry 1178], the half-maximal inhibitory concentration (IC50) under setting [1] lay in the range of 1 to 5 µM.
For the molecule `O=C(N[C@@H](Cc1ccc(OP(=O)(O)O)cc1)C(=O)O)c1ccc2c(c1)nc(-c1ccoc1)n2C1CCCCC1` [Entry 16050], the 50% inhibitory concentration (IC50) (IC50, Table 16) is under 1 µM.
Molecule `O=C(O)[C@@H]1Cc2c([nH]c3ccc(O)cc23)CN1C(=O)c1ccc2c(c1)nc(-c1ccoc1)n2C1CCCCC1` [Entry 6005] displayed a half-maximal inhibitory concentration (IC50) (IC50 μM, Table 6) of 5 to 10 µM.
Regarding `O=C(O)COc1ccc(CC(OC(=O)c2ccc3c(c2)nc(-c2ccoc2)n3C2CCCCC2)C(=O)O)cc1` (racemic) [Entry 5005, 1-Cyclohexyl-2-furan-3-yl-1H-benzimidazole-5-carboxylic Acid 1-Carboxy-2-(4-carboxymethoxy-phenyl)-ethyl Ester], the IC50 (IC50 μM, Table 5) was under 1 µM.
With `O=C(C[C@@H](O)C(=O)O)Nc1ccc(C[C@H](NC(=O)c2ccc3c(c2)nc(-c2ccoc2)n3C2CCCCC2)C(=O)O)cc1` [Entry 16045], the IC50 (IC50, Table 16) is under 1 µM.
Consider `Cn1cc(C[C@H](NC(=O)c2ccc3c(c2)nc(-c2ccoc2)n3C2CCCCC2)C(=O)O)c2cc(OC(C)(C)C(=O)O)ccc21` [Entry 11030], for which the IC50 (IC50, Table 11) is under 1 µM.
For the molecule `Cc1[nH]c2ccc(O)cc2c1C[C@H](NC(=O)c1ccc2c(c1)nc(-c1ccoc1)n2C1CCCCC1)C(=O)O` [Entry 11020, (S)-2-{[1-(1-Cyclohexyl-2-furan-3-yl-1H-benzoimidazol-5-yl)-methanoyl]-amino]-3-(5-hydroxy-2-methyl-1H-indol-3-yl)-propionic Acid], the half-maximal inhibitory concentration (IC50) (IC50, Table 11) is under 1 µM.
In turn, `O=C(O)COc1ccc(CC(NC(=O)c2ccc3c(c2)nc(-c2ccoc2)n3C2CCCCC2)C(=O)O)cc1C(=O)O` (racemic) [Entry 16054, 5-(2-Carboxy-2-{[1-(1-cyclohexyl-2-furan-3-yl-1H-benzimidazol-5-yl)-methanoyl]-amino}-ethyl)-2-carboxymethoxy-benzoic Acid] registered a half-maximal inhibitory concentration (IC50) (IC50, Table 16) of under 1 µM.
As for `CC(=O)Nc1nc([C@H](Cc2ccc(O)cc2)NC(=O)c2ccc3c(c2)nc(-c2ccoc2)n3C2CCCCC2)c[nH]1` [Entry 1243, 1-Cyclohexyl-2-furan-3-yl-1H-benzimidazole-5-carboxylic Acid [(S)-1-(2-Acetylamino-1H-imidazol-4-yl)-2-(4-hydroxy-phenyl)-ethyl]-amide], under setting [1], the half-inhibitory concentration (IC50) was in the range of 5 to 10 µM.
With `NC(=O)[C@H](Cc1ccc(O)cc1)NC(=O)c1ccc2c(c1)nc(-c1ccccn1)n2C1CCCCC1` [Entry 2135], the IC50 (IC50 μM, Table 2) is 1 to 5 µM.
As for `NC(=O)c1ccc(C[C@H](NC(=O)c2ccc3c(c2)nc(-c2ccoc2)n3C2CCCCC2)C(=O)O)cc1` [Entry 16035, (S)-3-(4-Carbamoyl-phenyl)-2-{[1-(1-cyclohexyl-2-furan-3-yl-1H-benzoimidazol-5-yl)-methanoyl]-amino}-propionic Acid], for the setting “IC50, Table 16”, the half-maximal inhibitory concentration (IC50) was under 1 µM.
In the case of `NC(=O)[C@@H](Cc1ccc(O)cc1)NC(=O)c1ccc2c(c1)nc(-c1ccoc1)n2C1CCCCC1` [Entry 1156], under setting [1], the IC50 fell in the range of 5 to 10 µM.
As for `CC(CC(=O)Nc1ccc(CC(=O)O)cc1)NC(=O)CC(C)NC(=O)c1ccc2c(c1)nc(-c1ccoc1)n2C1CCCCC1` (stereo not shown) [Entry 1169], the concentration for half-maximal inhibition (IC50) under setting [1] lay in the range of 10 to 25 µM.
For the setting “IC50 μM, Table 2”, `COc1ccc(C(NC(=O)c2ccc3c(c2)nc(-c2cccc(C(=O)O)c2)n3C2CCCCC2)C(=O)O)cc1OC` (stereo not shown) [Entry 2035] came in with an IC50 of 10 to 25 µM.
Turning to `O=C(N[C@@H](Cc1c[nH]c2ccc(O)cc12)C(=O)O)c1ccc2c(c1)nc(-c1ccoc1)n2[C@@H]1CCCC[C@@H]1CO` [Entry 3037], the half-maximal inhibitory concentration (IC50) (IC50 μM, Table 3) fell in the range of 5 to 10 µM.
For the molecule `O=C(N[C@@H](Cc1c[nH]c2ccc(O)cc12)C(=O)O)c1ccc2c(c1)nc(-c1cn[nH]c1)n2C1CCCCC1` [Entry 2142], the IC50 (IC50 μM, Table 2) is under 1 µM.
Under setting [1], `O=C(O)c1ccc(CN2CCCC(NC(=O)c3ccc4c(c3)nc(-c3ccoc3)n4C3CCCCC3)C2)cc1` (stereo not shown) [Entry 1275] returned an IC50 of 5 to 10 µM.
Take `O=C(N[C@H]1CC[C@H](N2C(=O)CNC2=O)CC1)c1ccc2c(c1)nc(-c1ccoc1)n2C1CCCCC1` [Entry 1193]: the IC50 under setting [1] is 10 to 25 µM.
Turning to `COc1ccc(C(NC(=O)c2ccc3c(c2)nc(C2CC2)n3C2CCCCC2)C(=O)O)cc1OC` (stereo not shown) [Entry 2034], the IC50 (IC50 μM, Table 2) was 10 to 25 µM.
Under setting [1], `O=C(O)c1cccc(CN2CCC(NC(=O)c3ccc4c(c3)nc(-c3ccoc3)n4C3CCCCC3)C2)c1` (stereo not shown) [Entry 1287] registered a 50% inhibitory concentration (IC50) of 1 to 5 µM.
Consider `O=C(O)c1cccc(CN2CCCC(NC(=O)c3ccc4c(c3)nc(-c3ccoc3)n4C3CCCCC3)C2)c1` (stereo not shown) [Entry 1291], for which the IC50 under setting [1] lay in the range of 1 to 5 µM.
The same measure, in the same setting: the figure for `Cn1cc(C[C@H](NC(=O)c2ccc3c(c2)nc(-c2ccoc2)n3C2CCCCC2)C(N)=O)c2cc(OC(C)(C)C(=O)O)ccc21` [Entry 1176, 2-[3-((S)-2-Carbamayl-2-{[1-(1-cyclohexyl-2-furan-3-yl-1H-benzimidazol-5-yl)-methanoyl-]amino}-ethyl)-1-methyl-1H-indol-5-yloxy]-2-methyl-propionic Acid] is 1 to 5 µM.
For the molecule `O=C(O)c1ccc2c(n1)nc(-c1ccoc1)n2C1CCCCC1` [Entry 5001, 1-Cyclohexyl-2-furan-3-yl-1H-imidazo[4,5-b]pyridine-5-carboxylic Acid], the 50% inhibitory concentration (IC50) (IC50 μM, Table 5) was in the range of 5 to 10 µM.
`CC/C(=C\c1cccc(NC(=O)c2ccc3c(c2)nc(-c2ccoc2)n3C2CCCCC2)c1)C(=O)O` [Entry 1236] displayed an IC50 under setting [1] of 5 to 10 µM.
As for `COc1ccc(C(NC(=O)c2ccc3c(c2)nc(-c2ccc(O)c(C(=O)O)c2)n3C2CCCCC2)C(=O)O)cc1OC` (stereo not shown) [Entry 2082], the concentration for half-maximal inhibition (IC50) (IC50 μM, Table 2) was 5 to 10 µM.
Under “IC50, Table 16”, `O=C(N[C@@H](Cc1cccc(-c2nnn[nH]2)c1)C(=O)O)c1ccc2c(c1)nc(-c1ccoc1)n2C1CCCCC1` [Entry 16057, (S)-2-{[1-(1-Cyclohexyl-2-furan-3-yl-1H-benzimidazol-5-yl)-methanoyl]-amino}-3-[3-(2H-tetrazol-5-yl)-phenyl]-propionic Acid] returned an IC50 of under 1 µM.
Under “IC50, Table 11”, `Cn1cc(C[C@H](NC(=O)c2ccc3c(c2)nc(-c2ccoc2)n3C2CCCCC2)C(=O)O)c2cc(O)ccc21` [Entry 11021, (S)-2-{[1-(1-Cyclohexyl-2-furan-3-yl-1H-benzoimidazol-5-yl)-methanoyl]-amino}-3(5-hydroxy-1-methyl-1H-indol-3-yl)-propionic Acid] came in with an IC50 of under 1 µM.
On to `CCOC(=O)CCNC(=O)N1CCC(NC(=O)c2ccc3c(c2)nc(-c2ccoc2)n3C2CCCCC2)CC1` [Entry 1219], for which the concentration for half-maximal inhibition (IC50) under setting [1] lay within 10 to 25 µM.
